Measurements from PubChem BioAssay AID1240 (Sanford-Burnham Center for Chemical Genomics, 2008).
Out of some 50,000 compounds screened, about 800 (1.6%) showed an effect of 50% or more. Some of the results follow.

Target: Bcl-2-like protein 10 (Homo sapiens) (UniProt Q9HD36)
Experiment: Phenotype converters, Bcl-B/TR3 peptide binding displacement, primary biochemical FP (AID 1240);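 further: 0% = Bcl-B with tracer peptide and DMSO and 100% = tracer peptide lacking Bcl-B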
Conditions: GST-Bcl-B / FITC-TR3 peptide fluorescence polarization; stronger effect = higher value; compound at 3.75 mg/L

Chain of UniProt Q9HD36 (Q9HD36 whole entry, looked up): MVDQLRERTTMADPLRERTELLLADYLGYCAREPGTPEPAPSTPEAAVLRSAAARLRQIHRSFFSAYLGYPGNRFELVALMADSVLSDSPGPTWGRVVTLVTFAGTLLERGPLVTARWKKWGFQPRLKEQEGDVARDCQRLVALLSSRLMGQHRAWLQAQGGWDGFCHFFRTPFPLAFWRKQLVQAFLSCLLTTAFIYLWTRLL

Structure (SMILES)	displacement [%]
O=C(COc1ccc2ccccc2c1)NCc1cccnc1	0.9
CCCOc1ccc2c3c(c(=O)oc2c1OCCC)CCCC3	2
Cn1cnnc1SCC(=O)NC(c1ccccc1)c1ccccc1	5.3
COc1ccc(CCNC2CCN(Cc3ccccc3)CC2)cc1OC	7.4
CN1C/C(=C\c2cccnc2)C(=O)/C(=C/c2cccnc2)C1	-5.2
CCc1c(C)sc(NC(=O)C2C3CCC(C3)C2C(=O)O)c1C(=O)OC(C)C (configuration not stated)	-14.6
COc1ccc(S(=O)(=O)Nc2ccc(C)cc2C)cc1Br	2.5
O=C(NCCN1CCOCC1)c1cccc(I)c1	2.4
COc1ccc(/C=C2\SC(=S)N(C(C(=O)O)C(C)C)C2=O)cc1OC (configuration not stated)	-27.3
COc1cccc(-n2c(O)c(C=NCC3CCCO3)c(=O)[nH]c2=O)c1 (configuration not stated)	7.3
Cc1ccc(S(=O)(=O)/N=C(\c2ccccc2)N(C)C)cc1	13.2
CC(C)(C)c1ccc(-c2nn(CNc3cccc(Cl)c3)c(=S)o2)cc1	14
C/C(=N\N=C1\NC(=O)C(CC(=O)Nc2ccccc2)S1)c1ccc(O)cc1O (configuration not stated)	19
C/C(=N\Nc1nc(C(C)(C)C)cs1)c1ccccc1	12.7
CC(C)(C)NC(=O)c1ccc(NC(=O)C(C)(C)C)cc1	-0.9
O=C1C2C3C=CC(CC3)C2C(=O)N1/N=C/c1cccs1 (configuration not stated)	0.7
CCOc1cc(/C=C2\SC(=S)N(c3ccccc3)C2=O)ccc1OC(=O)c1cccc([N+](=O)[O-])c1	14.1
Cc1cc(I)ccc1NC(=O)c1ccccc1Cl	-3.5
Cc1cccc(N2C(=O)c3ccc(N)cc3C2=O)c1C	12.3
CCOc1ccc(NC(=O)CCC(=O)OC)cc1	12.6
Cc1cccc(C)c1NC(=O)Cc1ccc(Br)cc1	14.5
CC1=C(C(=O)OCC2CCCO2)C(c2cccs2)C2=C(CC(C)(C)CC2=O)N1 (configuration not stated)	2.8
CC(OC1=CC(=O)CCC1)C(=O)c1ccccc1 (configuration not stated)	-1.8

Structure (SMILES)	displacement [%]
COc1ccc(CC(=O)Nc2ccc(Br)cc2C(=O)O)cc1	4.5
COc1ccc(/C(O)=C/C(=O)C(=O)NCc2ccccc2)cc1	5.5
O=C1c2cccc3ccc(Cl)c(c23)C(=O)N1Oc1ccc([N+](=O)[O-])cc1[N+](=O)[O-]	30.9
CCOC(=O)C1=C(N)OC2=C(C(=O)CCC2)C1c1ccc(Cl)cc1Cl (configuration not stated)	-2.9
O=S(=O)(c1cc(Cl)ccc1Cl)n1cnc2ccccc21	-5.9
CC(C)(C)NS(=O)(=O)c1ccc2ccccc2c1	-2
COC(C)(C)c1cc(-c2ccccc2)nc(N)n1	-6
COc1ccccc1CNC(=O)C(=O)Nc1cc(C)ccc1C	8.5
COc1ccc(N=c2ssc3c2-c2cc(OC)ccc2NC3(C)C)cc1	-4.1
COc1cc(C(=O)NCc2ccco2)c([N+](=O)[O-])cc1OC	8.4
CCOC(=O)C1CCN(Cc2c(O)ccc3ccccc23)CC1	9.4
COc1ccc(OC)c(CN2CCN(C(=O)c3ccc(-c4ccccc4)cc3)CC2)c1	-5.1
O=C(Nc1cc([N+](=O)[O-])ccc1C(=O)NCc1ccco1)c1cccs1	-5.8
COc1ccccc1C(=O)N1CCN(C(=O)CC(C)C)CC1	-5.6
O=S(=O)(c1ccc2ccccc2c1)N1CCC(Cc2ccccc2)CC1	-21.4
Cc1c(NC(=O)CN(c2cccc([N+](=O)[O-])c2)S(=O)(=O)c2ccccc2)c(=O)n(-c2ccccc2)n1C	11.6
COc1cccc(C2(c3cccc(OC)c3)CC2C(=O)Nc2cccc([N+](=O)[O-])c2)c1 (configuration not stated)	-2.6
Cc1ccc(S(=O)(=O)N2CCN(c3ccccc3)CC2)cc1C	-6.7
O=C(c1ccccc1)c1ccc2nc(-c3cccnc3)[nH]c2c1	13.2
O=C1CC(=O)N2N=C(c3ccccc3)SC2=N1	8.5
O=C(CN1C(=O)/C(=C/c2ccc(Br)cc2)SC1=S)Nc1nccs1	9.9
N/C(=N/OCC(=O)Nc1ccc(F)cc1)c1nonc1N	7.8
N#C/C(=C\c1ccc(-c2ccc(Cl)cc2)o1)c1ccccc1	130

Structure (SMILES)	displacement [%]
COc1ccccc1N(CC(=O)Nc1ccc(C)c(C)c1)S(=O)(=O)c1ccccc1	3.4
CC(Oc1ccccc1)C(=O)Nc1cc(C(N)=O)c(Cl)cc1Cl (configuration not stated)	-0.2
O=C1c2c(Cl)c(Cl)c(Cl)c(Cl)c2C(=O)C1(Nc1ccccc1)c1ccccc1	31.1
COc1cc(/C=C2\N=C(c3cccc(Br)c3)OC2=O)cc(OC)c1OC	72.6
O=C(NCC1CCCO1)c1ccc(-c2ccccc2)cc1 (configuration not stated)	9.1
Clc1cccc(-c2nc3ccccc3[nH]2)c1	1.9
Cc1c(C)c2ccc(OCC(=O)C(C)(C)C)cc2oc1=O	12.2
O=C(Nc1ccc(I)cc1Cl)c1ccccc1Cl	13.4
Cc1cc(C=C2C(=O)NC(=O)NC2=O)c(-c2ccccc2)n1-c1ccccc1	150
Cc1cc2oc(=O)cc(C)c2cc1NC(=O)CCC(=O)O	6.5
O=C(c1ccc(F)c2ccccc12)N1CCc2ccccc21	19.4
CCC1CCc2c(sc(NC(=O)c3ccc(C(C)C)cc3)c2C(N)=O)C1 (configuration not stated)	34.3
CC(C)(C)c1ccc(OCC(=O)Nc2cccc(NC(=O)c3ccccc3)c2)cc1	3.2
COc1ccc(C2CC(c3ccc(F)cc3)=NN2c2cccc(F)c2)cc1OC (configuration not stated)	-6.2
FC(F)(F)c1ccc(-c2noc(-c3ccc(Br)cc3)n2)cc1	-10.9
Cc1[nH]c2ccccc2c1/C=C(/C#N)C(=O)NCc1ccccc1	-9.6
CN(C)Cc1c(O)ccc2c(=O)c(-c3ccc(Cl)cc3Cl)coc12	-17
COc1cccc(OCCOc2cccc(/C=C3/SC(=S)N(c4ccccc4)C3=O)c2)c1	37.7
O=C(Nc1ccc(N2CCCCC2)cc1)c1cccnc1	-5.8
COc1ccc2c(c1)NC(C)(C)c1sn(-c3ccc(C)cc3)c(=S)c1-2	9.2
O=C(CCCN1C(=O)c2cccc3cccc(c23)C1=O)NCc1ccco1	-8
Cc1ccc(CNC(=O)CN(c2cccc([N+](=O)[O-])c2)S(=O)(=O)c2ccccc2)cc1	11.6
Cc1cccc(OCC(=O)Nc2ncc(Cc3ccc(Cl)cc3Cl)s2)c1	-5.1

Structure (SMILES)	displacement [%]
CC1=C(C(=O)OC2CCCCC2)C(c2cccc(Cl)c2)C2=C(CC(C)(C)CC2=O)N1 (configuration not stated)	-2
O=C1/C(=C/c2ccc(Br)cc2)SC(=S)N1Cc1ccco1	104
COc1cc(NC(=O)CCC(=O)O)cc(OC)c1OC	-3.7
O=C1NC(=S)N(c2cccc(Br)c2)C(=O)/C1=C/c1ccc(O)c(Cl)c1	-1
COc1ccc(C2(CNC(=O)CCc3ccccc3)CCCC2)cc1OC	-8.1
CCOc1ccc(NC(=S)NC(=O)c2cccs2)c([N+](=O)[O-])c1	6.9
COc1cccc(NC(=O)c2ccc(CN(c3ccc(C)c(C)c3)S(C)(=O)=O)cc2)c1	-5.3
COc1ccc(NC(=O)Cc2cccc3c(S(=O)O)cccc23)cc1	11.4
CCCC(=O)Nc1ccc(NC(=O)COc2ccc3ccccc3c2)cc1	-48
OCc1cn(-c2ccccc2)nc1-c1ccc(-c2nn(-c3ccccc3)cc2CO)cc1	-6
O=S(=O)(c1ccc2c(c1)OCCO2)N1CCCC1	3.8
Cc1ccccc1N1CC(C(=O)N/N=C\c2ccc(Br)cc2)CC1=O (configuration not stated)	3
COc1ccccc1N(CC(=O)NC12CC3CC(CC(C3)C1)C2)S(=O)(=O)c1ccccc1	-6.5
COc1ccc(N/C(C)=C/C2=[N+](c3ccccc3)C(C)(O)CS2)cc1 (configuration not stated)	-1.5
COc1ccc(OC)c(/C=C(/C#N)C(=O)Nc2cccc(Br)c2)c1	100
COc1ccccc1N1CCN(/N=C/c2ccc(Br)s2)CC1	16.4
CC(C)C(=O)NNC(=O)C12CC3CC(CC(C3)C1)C2	-1.7
C=CCNC(=O)CN(c1ccc(OC)cc1)S(C)(=O)=O	1.7
CC(=O)Nc1ccc(Nc2cc(Cl)c(C(F)(F)F)cc2[N+](=O)[O-])cc1	7.6
Cc1ccc(C(=O)C(C)[n+]2cccc(C(N)=O)c2)cc1 (configuration not stated)	-7.4
COc1ccc(C(=O)NCC2(c3ccccc3)CCCC2)cc1	-6
Cc1ccc(OCCNC(=O)CCc2ccccc2)cc1C	10.3
NC(=O)SCC(=O)Nc1ccccc1Br	-0.6

Structure (SMILES)	displacement [%]
CC1CCN(c2cc(N3CCN(C(=O)c4ccc(F)cc4)CC3)c([N+](=O)[O-])cc2F)CC1	2.4
O=C(Oc1ccc(Cl)cc1)c1cccc(S(=O)(=O)N2CCOCC2)c1	-8.4
Cc1cc(C)nc(SCC(=O)NCc2ccco2)n1	-9.5
COC(=O)c1cn(C(=O)c2ccco2)c2ccccc12	-14.1
O=C(NN1C(=O)/C(=C/c2ccc(Cl)cc2Cl)SC1=S)c1ccccc1O	20.4
CCOc1ccc(N(CC(=O)Nc2ccc(C(C)C)cc2)S(C)(=O)=O)cc1	6.6
CCc1c(C)nc2[nH]nc(-c3ccc(C)cc3)n2c1=O	-5.5
COc1ccc(NC(=O)c2cc(Br)ccc2Cl)cc1OC	-12.3
CC(C)c1cc(C=O)cc(C(C)C)c1O	-7.2
O=C(Nc1ccc(Cl)cn1)c1cc(I)ccc1Cl	13.6
C1=CC2CC1CC2CN1CCN(Cc2cccnc2)CC1 (configuration not stated)	6.3
COCc1ccccc1P(=O)(c1ccccc1)c1ccccc1	5
O=C(O)C1C2CCC(O2)C1C(=O)Nc1ccc2c(c1)OCCO2 (configuration not stated)	-7.2
O=C(/C=C/NNC(=O)c1ccccc1)c1ccccc1	10
O=C(Nc1ccccc1)c1ccccc1NC(=O)C(c1ccccc1)c1ccccc1	11.3
CS(=O)(=O)NCCNc1ccc([N+](=O)[O-])cc1Cl	-16.2
Cc1ccc(OCC(=O)NNC(=O)c2ccc(Cl)cc2Cl)c(C)c1	-4.4
C=CCN1C(=O)/C(=C/c2cccc(OCc3ccccc3Cl)c2)SC1=S	-4.4
O=[N+]([O-])c1cc(Cl)ccc1N1CCN(S(=O)(=O)c2ccc(Cl)cc2)CC1	-5.2
O=C(/C=C/c1ccccc1)Nc1ccc(N2CCCCC2)cc1	2.3
